From a compilation of properties of binary mixtures (doi:10.1021/jp307276y)
The densities may have been worked out from excess volumes.

Assay: xn = mol fraction of the nth substance listed
Conditions: 101 kPa

CCCCCCCCCC[N+]1(C)CCOCC1.O=S(=O)([N-]S(=O)(=O)C(F)(F)F)C(F)(F)F + CCCCO
mass density (303.15 K, x2 = 0.405): 1216 kg/m3
mass density (303.15 K, x2 = 0.8): 1063.6 kg/m3
mass density (313.15 K, x2 = 0.21): 1244.1 kg/m3
mass density (313.15 K, x2 = 0.405): 1207.7 kg/m3
mass density (313.15 K, x2 = 0.603): 1149.7 kg/m3
mass density (313.15 K, x2 = 0.8): 1055.1 kg/m3
mass density (323.15 K, x2 = 0.21): 1235 kg/m3
mass density (333.15 K, x2 = 0.21): 1223.8 kg/m3
mass density (333.15 K, x2 = 0.405): 1192 kg/m3
mass density (333.15 K, x2 = 0.603): 1133.1 kg/m3
mass density (333.15 K, x2 = 0.8): 1036 kg/m3

CCCCCCCCCC[n+]1ccn(C)c1.O=S(=O)([N-]S(=O)(=O)C(F)(F)F)C(F)(F)F + CCCCO
mass density (303.15 K, x2 = 0.402): 1209.6 kg/m3
mass density (303.15 K, x2 = 0.602): 1152 kg/m3
mass density (303.15 K, x2 = 0.801): 1048.9 kg/m3
mass density (313.15 K, x2 = 0.602): 1142.1 kg/m3
mass density (313.15 K, x2 = 0.801): 1040.2 kg/m3
mass density (323.15 K, x2 = 0.402): 1192.4 kg/m3
mass density (323.15 K, x2 = 0.801): 1031.2 kg/m3
mass density (333.15 K, x2 = 0.197): 1222.7 kg/m3
mass density (333.15 K, x2 = 0.402): 1183.8 kg/m3
mass density (333.15 K, x2 = 0.602): 1120.5 kg/m3
